The chains are these.
B1: TEV protease; numbered along this chain (parent)
chain: MGESLFKGPRDYNPISSSICHLTNESDGHTTSLYGIGFGPFIITNKHLFRRNNGTLVVQSLHGVFKVKDTTTLQQHLVDGRDMIIIRMPKDFPPFPQKLKFREPQREERICLVTTNFQTKSMSSMVSDTSCTFPSGDGIFWKHWIQTKDGQCGSPLVSTRDGFIVGIHSASNFTNTNNYFTSVPKNFMELLTNQEAQQWVSGWRLNADSVLWGGHKVFMVKPEEPFQPVKEATQL

Some of the results follow. Sequences were assembled here from the parent chain. Values near 0.05 are background.

Variants of B1 are the subject of this experiment. Put plainly: raw area under fraction-flipped curve 0-4 h after induction (AUC4h, not background-subtracted), DNA-recorder readout of cleavage of the substrate (dimensionless); higher = more cleavage of the substrate by the protease variant. Conditions: temperature: 34 °C; time window: 0-4 h after rhamnose induction. On the procedure:
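In vivo DNA recorder in E. coli TOP10(DE3) ΔrhaA at 34 °C. Each TEVp single-site mutant (parent TEVp 0) is paired with a single-site variant of the 7-mer TEVs (canonical ENLYFQ|S). The substrate sits between flexible linkers in a Bxb1-sfGFP-TEVs-SsrA fusion, so cleavage stabilises Bxb1 and speeds flipping of a recombination array, read by NGS. The value is the raw area under the fraction-flipped curve over 0-4 h after rhamnose induction (AUC4h), with ≥20 reads per time point. It is not background-subtracted; inactive controls average about 0.047.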

The text below walks through data of the supplement of paper PMC12217912.
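Further: Bxb1 expression induced with 0.2% (w/v) L-rhamnose at OD600 near 0.5, cultures sampled hourly, flipped fraction per protease–substrate barcode pair counted by paired-end Illumina sequencing.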

As for MGESLFKGPRDYNPISSSICHLTNESDGHTTSLYGIGFGPFIITNKHLFRRNNGTLVVQSLHGVFKVKDTTTLQQHLVDGRDMIIIRMPKDFPPFPQKLKFREPQREERICLVTTNFQTKSMSSMVSDTSCTFPSGDGIFWKHWIQTKDGQCGSPLVSTRDGFIVGIHSASNFTNTNNYFTSVPKNFMELLTNQEAQQWVSGWRLNADSVLWGGHKVFMVKVEEPFQPVKEATQL [P222V], the “area with substrate ENLYFQA” value was 0.0946, the “area with substrate ENLYFQC” value worked out at 0.108, the “area with substrate ENLYFQD” value came out at 0.0583 and the “area with substrate ENLYFQE” value came to 0.0725. The “area with substrate ENLYFQF” value was found to be 0.0806, the “area with substrate ENLYFQG” value was determined as 0.0871, the “area with substrate ENLYFQH” value is 0.079 and the “area with substrate ENLYFQI” value came out at 0.0588. Moreover, the “area with substrate ENLYFQM” value was determined as 0.0749, the “area with substrate ENLYFQN” value was 0.0766, the “area with substrate ENLYFQP” value came to 0.0619 and the “area with substrate ENLYFQQ” value stood at 0.0678. Besides, the “area with substrate ENLYFQR” value was 0.0639, the “area with substrate ENLYFQS” value worked out at 0.0923, the “area with substrate ENLYFQT” value was determined as 0.0618 and the “area with substrate ENLYFQV” value came out at 0.0625. The “area with substrate ENLYFQW” value came out at 0.0419 and the “area with substrate ENLYFQY” value was 0.0586.
With MGESLFKGPRDYNPISSSICHLTNESDGHTTSLYGIGFGPFIITNKHLFRRNNGTLVVQSLHGVFKVKDTTTLQQHLVDGRDMIIIRMPKDFPPFPQKLKFREPQREERICLVTTNFQTKSMSSMVSDTSCTFPSGDGIFWKHWIQTKDGQCGSPLVSTRDGFIVGIHSASNFTNTNNYFTSVPKNFMELLTNQEAQQWVSGWRLNADSVLWGGHKVFMVKGEEPFQPVKEATQL [P222G], the “area with substrate ENLYFQA” value is 0.0949, the “area with substrate ENLYFQC” value was found to be 0.137, the “area with substrate ENLYFQD” value was 0.0569 and the “area with substrate ENLYFQG” value is 0.0662. Further, the “area with substrate ENLYFQH” value stood at 0.0661, the “area with substrate ENLYFQI” value was 0.0336, the “area with substrate ENLYFQK” value was found to be 0.0536 and the “area with substrate ENLYFQL” value is 0.072. The “area with substrate ENLYFQM” value stood at 0.0938, the “area with substrate ENLYFQN” value was 0.0772, the “area with substrate ENLYFQP” value was determined as 0.0626 and the “area with substrate ENLYFQR” value is 0.0546. Besides, the “area with substrate ENLYFQS” value was 0.103, the “area with substrate ENLYFQT” value worked out at 0.0563 and the “area with substrate ENLYFQY” value turned out to be 0.066.
Consider MGESLFKGPRDYNPISSSICHLTNESDGHTTSLYGIGFGPFIITNKHLFRRNNGTLVVQSLHGVFKVKDTTTLQQHLVDGRDMIIIRMPKDFPPFPQKLKFREPQREERICLVTTNFQTKSMSSMVSDTSCTFPSGDGIFWKHWIQTKDGQCGSPLVSTRDGFIVGIHSASNFTNTNNYFTSVPKNFMELLTNQEAQQWVSGWRLNADSVLWGGHKVFMVKPEERFQPVKEATQL [P225R], for which the “area with substrate ENLYFQA” value was 0.0932, the “area with substrate ENLYFQC” value was determined as 0.115, the “area with substrate ENLYFQD” value is 0.0589 and the “area with substrate ENLYFQF” value amounted to 0.0626. Further, the “area with substrate ENLYFQG” value came out at 0.106, the “area with substrate ENLYFQH” value is 0.0695, the “area with substrate ENLYFQI” value amounted to 0.0576 and the “area with substrate ENLYFQK” value is 0.07. The “area with substrate ENLYFQL” value worked out at 0.0648, the “area with substrate ENLYFQM” value came to 0.075, the “area with substrate ENLYFQN” value was found to be 0.0673 and the “area with substrate ENLYFQP” value turned out to be 0.0534. The “area with substrate ENLYFQR” value came to 0.0587, the “area with substrate ENLYFQS” value is 0.0947, the “area with substrate ENLYFQT” value was 0.0541 and the “area with substrate ENLYFQV” value was 0.0578. Also, the “area with substrate ENLYFQW” value is 0.0695 and the “area with substrate ENLYFQY” value came out at 0.0737.
Consider MGESLFKGPRDYNPISSSICHLTNESDGHTTSLYGIGFGPFIITNKHLFRRNNGTLVVQSLHGVFKVKDTTTLQQHLVDGRDMIIIRMPKDFPPFPQKLKFREPQREERICLVTTNFQTKSMSSMVSDTSCTFPSGDGIFWKHWIQTKDGQCGSPLVSTRDGFIVGIHSASNFTNTNNYFTSVPKNFMELLTNQEAQQWVSGWRLNADSVLWGGHKVFMVKPEETFQPVKEATQL [P225T], for which the “area with substrate ENLYFQA” value amounted to 0.101, the “area with substrate ENLYFQC” value worked out at 0.11, the “area with substrate ENLYFQG” value was determined as 0.11 and the “area with substrate ENLYFQH” value worked out at 0.0564. Moreover, the “area with substrate ENLYFQI” value stood at 0.048, the “area with substrate ENLYFQK” value was 0.0625, the “area with substrate ENLYFQL” value was 0.0478 and the “area with substrate ENLYFQM” value amounted to 0.0678. The “area with substrate ENLYFQN” value worked out at 0.0586, the “area with substrate ENLYFQR” value was 0.0674, the “area with substrate ENLYFQS” value was 0.103 and the “area with substrate ENLYFQT” value came out at 0.0618. Moreover, the “area with substrate ENLYFQV” value is 0.0719, the “area with substrate ENLYFQW” value worked out at 0.0603 and the “area with substrate ENLYFQY” value was 0.0742.
As to MGESLFKGPRDYNPISSSICHLTNESDGHTTSLYGIGFGPFIITNKHLFRRNNGTLVVQSLHGVFKVKDTTTLQQHLVDGRDMIIIRMPKDFPPFPQKLKFREPQREERICLVTTNFQTKSMSSMVSDTSCTFPSGDGIFWKHWIQTKDGQCGSPLVSTRDGFIVGIHSASNFTNTNNYFTSVPKNFMELLTNQEAQQWVSGWRLNADSVLWGGHKVFQVKPEEPFQPVKEATQL [M219Q], the “area with substrate ENLYFQA” value was found to be 0.0707, the “area with substrate ENLYFQC” value worked out at 0.0981, the “area with substrate ENLYFQD” value was 0.0657 and the “area with substrate ENLYFQF” value was 0.0612. In addition, the “area with substrate ENLYFQG” value stood at 0.0887, the “area with substrate ENLYFQH” value worked out at 0.0674, the “area with substrate ENLYFQI” value came out at 0.0699 and the “area with substrate ENLYFQK” value was 0.0525. Besides, the “area with substrate ENLYFQL” value came to 0.0545, the “area with substrate ENLYFQM” value amounted to 0.0643, the “area with substrate ENLYFQN” value was 0.0645 and the “area with substrate ENLYFQP” value came out at 0.0602. Further, the “area with substrate ENLYFQQ” value is 0.0605, the “area with substrate ENLYFQR” value is 0.0665, the “area with substrate ENLYFQS” value was 0.0944 and the “area with substrate ENLYFQT” value was found to be 0.0721. The “area with substrate ENLYFQV” value is 0.0548, the “area with substrate ENLYFQW” value amounted to 0.0971 and the “area with substrate ENLYFQY” value was found to be 0.0478.
MGESLFKGPRDYNPISSSICHLTNESDGHTTSLYGIGFGPFIITNKHLFRRNNGTLVVQSLHGVFKVKDTTTLQQHLVDGRDMIIIRMPKDFPPFPQKLKFREPQREERICLVTTNFQTKSMSSMVSDTSCTFPSGDGIFWKHWIQTKDGQCGSPLVSTRDGFIVGIHSASNFTNTNNYFTSVPKNFMELLTNQEAQQWVSGWRLNADSVLWGGHKVFMVKPEMPFQPVKEATQL [E224M]: the “area with substrate ENLYFQA” value worked out at 0.0757, the “area with substrate ENLYFQC” value came to 0.0848, the “area with substrate ENLYFQG” value was found to be 0.074 and the “area with substrate ENLYFQK” value was 0.0618. Besides, the “area with substrate ENLYFQM” value amounted to 0.0921, the “area with substrate ENLYFQN” value was determined as 0.0764, the “area with substrate ENLYFQQ” value is 0.0651 and the “area with substrate ENLYFQR” value came out at 0.0445. For the same variant, the “area with substrate ENLYFQS” value came to 0.0946, the “area with substrate ENLYFQT” value was found to be 0.0829 and the “area with substrate ENLYFQW” value stood at 0.0645.
With MGESLFKGPRDYNPISSSICHLTNESDGHTTSLYGIGFGPFIITNKHLFRRNNGTLVVQSLHGVFKVKDTTTLQQHLVDGRDMIIIRMPKDFPPFPQKLKFREPQREERICLVTTNFQTKSMSSMVSDTSCTFPSGDGIFWKHWIQTKDGQCGSPLVSTRDGFIVGIHSASNFTNTNNYFTSVPKNFMELLTNQEAQQWVSGWRLNADSVLWGGHKVFMVKPEEPFQPVKGATQL [E231G], the “area with substrate ENLYFQA” value stood at 0.114, the “area with substrate ENLYFQD” value was determined as 0.0683, the “area with substrate ENLYFQG” value turned out to be 0.105 and the “area with substrate ENLYFQH” value was 0.0709. Also, the “area with substrate ENLYFQK” value worked out at 0.057, the “area with substrate ENLYFQL” value was 0.0692, the “area with substrate ENLYFQM” value turned out to be 0.0887 and the “area with substrate ENLYFQN” value was determined as 0.076. Further, the “area with substrate ENLYFQP” value came out at 0.0463, the “area with substrate ENLYFQQ” value was determined as 0.0651, the “area with substrate ENLYFQR” value is 0.0576 and the “area with substrate ENLYFQS” value was found to be 0.107. Moreover, the “area with substrate ENLYFQT” value worked out at 0.0693, the “area with substrate ENLYFQV” value turned out to be 0.0898 and the “area with substrate ENLYFQW” value was 0.0714.
As for MGEKLFKGPRDYNPISSSICHLTNESDGHTTSLYGIGFGPFIITNKHLFRRNNGTLVVQSLHGVFKVKDTTTLQQHLVDGRDMIIIRMPKDFPPFPQKLKFREPQREERICLVTTNFQTKSMSSMVSDTSCTFPSGDGIFWKHWIQTKDGQCGSPLVSTRDGFIVGIHSASNFTNTNNYFTSVPKNFMELLTNQEAQQWVSGWRLNADSVLWGGHKVFMVKPEEPFQPVKEATQL [S4K], the “area with substrate ENLYFQC” value was found to be 0.175, the “area with substrate ENLYFQG” value was found to be 0.128, the “area with substrate ENLYFQH” value stood at 0.112 and the “area with substrate ENLYFQI” value was found to be 0.0596. For the same variant, the “area with substrate ENLYFQK” value is 0.107, the “area with substrate ENLYFQL” value is 0.0754, the “area with substrate ENLYFQM” value was found to be 0.131 and the “area with substrate ENLYFQN” value turned out to be 0.105. The “area with substrate ENLYFQR” value was found to be 0.0562, the “area with substrate ENLYFQS” value was 0.133, the “area with substrate ENLYFQV” value worked out at 0.1 and the “area with substrate ENLYFQW” value was determined as 0.0659.
As to MGESLFKGPRDYNPISSSICHLTNESDGHTTSLYGIGFGPFIITNKHLFRRNNGTLVVQSLHGVFKVKDTTTLQQHLVDGRDMIIIRMPKDFPPFPQKLKFREPQREERICLVTTNFQTKSMSSMVSDTSCTFPSGDGIFWKHWIQTKDGQCGSPLVSTRDGFIVGIHSASNFTNTNNYFTSVPKNFMELLTNQEAQQWVSGWRLNADSVLWGGHKVSMVKPEEPFQPVKEATQL [F218S], the “area with substrate ENLYFQA” value was 0.122, the “area with substrate ENLYFQC” value amounted to 0.116, the “area with substrate ENLYFQD” value was 0.0511 and the “area with substrate ENLYFQG” value worked out at 0.0891. The “area with substrate ENLYFQH” value stood at 0.0807, the “area with substrate ENLYFQI” value was 0.057, the “area with substrate ENLYFQM” value turned out to be 0.0839 and the “area with substrate ENLYFQN” value was found to be 0.0947. The “area with substrate ENLYFQP” value turned out to be 0.0491, the “area with substrate ENLYFQR” value turned out to be 0.0607, the “area with substrate ENLYFQS” value amounted to 0.104 and the “area with substrate ENLYFQT” value was determined as 0.0627. Further, the “area with substrate ENLYFQW” value was 0.0612.
